Reference: PubChem BioAssay AID1347430 (National Center for Advancing Translational Sciences (NCATS), 2020)
Screen size: about 91,000 compounds; about 130 (0.14%) were called active. Inconclusive means that the source gave no clear call. Such entries were picked first, then a sample of the others. Calls come from the whole dose curve; as a rule, active = well fitted inhibition curve with a large enough effect; inconclusive = small, poorly fitted or top-dose-only effect; inactive = flat fitted curve, though single readings scatter. Potencies of inconclusive entries are doubtful fits and often do not repeat.
% is set by controls: 0 for no effect and ±100 for the full control effect; potency is the fitted concentration of half-maximal effect; tags give direction and shape of the fitted curve.
Note: nearly all actives have a fitted effect of over 65% in size.

Each molecule was assayed on Uracil-DNA glycosylase (assay: Primary qHTS assay for inhibitors of Activation Induced Cytidine Deaminase (AID): UDG Counterscreen signal). Details: FRET deamination/UDG coupled assay, UDG read, 4 h; activity change, negative = inhibition: at 115 µM (top of the series).
In the case of `COc1ccccc1N1CCN(S(=O)(=O)c2c(C)nc3sc(C)c(C)n3c2=O)CC1`, the Potency is reported as inconclusive: 89.1 µM [inhibitor, single point].
In the case of `Cc1cccc(CNC(=O)c2ccc3c(c2)N(C)C(=O)C2CCCCN32)c1` (stereo not drawn), the Potency is reported as inconclusive: 89.1 µM [inhibitor, partial curve, poor fit].
In the case of `Cc1ccccc1OCc1nc2ccccc2n1Cc1ccccc1Cl`, the Potency is reported as inconclusive: 79.4 µM [inhibitor, partial curve, poor fit].
`CCS(=O)(=O)N1CCc2cc(C(=O)Nc3cccc(C(C)=O)c3)ccc21` was tested, and the Potency was inconclusive: 89.1 µM [inhibitor, single point].
`CN1C(=O)c2ccccc2Sc2ccc(NC(=O)NCc3ccc(Cl)cc3)cc21` was tested, and the Potency was inconclusive: 89.1 µM [inhibitor, single point].
`COc1ccccc1C(=O)Oc1c(Sc2ccccc2)c(C)nn1-c1ccccc1` was tested, and the Potency was inconclusive: 70.8 µM [inhibitor, single point].
With `CC1CCN(c2nc(SCCO)c(C#N)c3c2CCCC3)CC1` the “activity change, negative = inhibition” value was inactive: -5.76%.
With `O=C(Nc1ccc(Br)cc1)N1CCSc2ccccc21` the “activity change, negative = inhibition” value was inactive: -7.22%.
For `CCOC(=O)c1c(-c2ccc(C)cc2)csc1NC(=O)c1cc(=O)c2cc(C)cc(C)c2o1`, the Potency was inconclusive: 20 µM [inhibitor, partial curve, poor fit].
For `N#Cc1cccc(NC(=O)C2(c3ccc(Cl)cc3)CCC2)c1`, the “activity change, negative = inhibition” value was inactive: -13.2%.
For `CCCn1cc(S(=O)(=O)c2ccc(OC)cc2)c(=O)c2cc(F)c(N3CCCC(C)C3)cc21` (stereo not drawn), the Potency was inconclusive: 70.8 µM [inhibitor, single point].
For `O=C(Nc1cc(-c2ccccc2F)nn1-c1ccccc1)c1ccccc1Br`, the Potency was inconclusive: 89.1 µM [inhibitor, single point].
For `CC(C)(C)C(=O)OCc1cc(=O)n2nc(C3CC3)sc2n1`, the Potency was inconclusive: 100 µM [inhibitor, single point].
`c1ccc(-c2noc(CSc3nnnn3C3CCCCC3)n2)cc1` was tested, and the Potency was active: 89.1 µM.
For `O=C(CSc1nc(=O)n(Cc2ccco2)c2c1CCC2)Nc1ccccc1C(F)(F)F`, the Potency was inconclusive: 100 µM [inhibitor, single point].
With `O=C(Oc1ccccc1F)c1nc(SCc2ccccc2F)ncc1Cl` the Potency was inconclusive: 100 µM [inhibitor, single point].
In the case of `O=C(NC1CCCCCC1)c1cc(-c2ccccn2)nc2c(Cl)cccc12`, the “activity change, negative = inhibition” value is reported as inactive: 13.1%.
For `CCc1ccc(Nc2nc3c(S(=O)(=O)c4ccc(C)cc4)nnn3c3ccsc23)cc1`, the Potency was inconclusive: 89.1 µM [inhibitor, single point].
In the case of `COc1ccc(-c2nc(CN3CCC(C(=O)NCc4ccc(C)cc4)CC3)c(C)o2)cc1OC`, the Potency is reported as inconclusive: 79.4 µM [inhibitor, partial curve, poor fit].
`CCc1ccc(OC(=O)CSc2nnc(-c3ccc(OC)c(OC)c3)o2)cc1` was tested, and the Potency was inconclusive: 89.1 µM [inhibitor, single point].
`Cc1ccc(NC(=O)N2CCC3(CC2)Oc2ccccc2C(=O)N3Cc2ccc(F)cc2)cc1` was tested, and the Potency was inconclusive: 70.8 µM [inhibitor, single point].
In the case of `Cc1cc(C)c2c(=O)cc(C(=O)Nc3sc4c(c3C(=O)NCc3ccco3)CCCC4)oc2c1`, the Potency is reported as inconclusive: 10 µM [inhibitor, partial curve, poor fit].
In the case of `COc1ccc2cc(C(=O)N3CCN(S(=O)(=O)c4ccc(C)cc4)CC3)c(C)nc2c1`, the “activity change, negative = inhibition” value is reported as inactive: -13.2%.
`CCOC(=O)c1c(C)oc2nc(C)nc(NCC3CCN(Cc4cc(C)ccc4C)CC3)c12` was tested, and the Potency was inconclusive: 100 µM [inhibitor, single point].
For `CSc1nccc(-c2cccs2)n1`, the “activity change, negative = inhibition” value was inactive: 5.63%.
In the case of `Cc1ccccc1OCC(=O)Nc1ccc(-c2nc3cc(Cl)cc(Cl)c3o2)cc1`, the Potency is reported as inconclusive: 89.1 µM [inhibitor, single point].
`COc1ccc2ccccc2c1C=C(C#N)c1ccccn1` was tested, and the “activity change, negative = inhibition” value was inactive: -7.51%.
For `COc1ccc(Cl)cc1NC(=O)C1CCN(c2nccnc2Oc2ccccc2C)CC1`, the Potency was active: 89.1 µM.
`COc1cc2nc(SCC(=O)Nc3ccccc3C)n3nc(CCn4c(C)nc5ccccc54)nc3c2cc1OC` was tested, and the Potency was inconclusive: 100 µM [inhibitor, single point].
With `CN1C(=O)Cc2cc(S(=O)(=O)NCc3ccc(Cl)cc3)ccc21` the Potency was inconclusive: 50.1 µM [inhibitor, partial curve, poor fit].
`CCc1ccccc1S(=O)(=O)Cc1ccc(C(=O)NCCc2ccc(C)cc2)o1` was tested, and the Potency was inconclusive: 89.1 µM [inhibitor, single point].
For `O=C(CSc1nnc2ccccn12)c1cccc(Cl)c1`, the “activity change, negative = inhibition” value was inactive: -16.6%.
In the case of `COc1ccc(S(=O)(=O)N(CC(=O)Nc2cc(Cl)ccc2C)Cc2ccccc2)cc1OC`, the Potency is reported as inconclusive: 79.4 µM [inhibitor, partial curve, poor fit].
In the case of `Cc1ccc(N=C2NC(=O)CC(C(=O)Nc3cc(C(F)(F)F)ccc3Cl)S2)cc1` (stereo not drawn), the “activity change, negative = inhibition” value is reported as inactive: 0.272%.
For `O=S(=O)(c1ccc(Cl)cc1)c1nnn2c1nc(NCc1ccc3c(c1)OCO3)c1sccc12`, the Potency was inconclusive: 89.1 µM [inhibitor, single point].
In the case of `CCc1[nH]c(C(=O)N2CCCC2c2ccc3c(c2)OCCO3)c(C)c1C(=O)OC` (stereo not drawn), the “activity change, negative = inhibition” value is reported as inactive: 4.53%.
With `COc1ccc(-c2nnc(SCC(=O)N(C)C3CCCCC3)o2)cc1OC` the “activity change, negative = inhibition” value was inactive: 21.7%.
In the case of `O=C(CCC(=O)c1ccc(Cl)cc1)OCCOc1ccc(Br)cc1`, the “activity change, negative = inhibition” value is reported as inactive: 1.91%.
In the case of `CC(=O)c1cccc(NS(=O)(=O)c2cc(-c3cnc(C4CC4)o3)ccc2C)c1`, the Potency is reported as inconclusive: 100 µM [inhibitor, partial curve, poor fit].
For `CC(C)Oc1ccc(C(=O)NCC(c2ccc(N(C)C)cc2)N2CCCC2)cc1` (stereo not drawn), the Potency was inconclusive: 89.1 µM [inhibitor, single point].
With `COc1cc(C(=O)Nc2ccc3c(c2)N(C2CCCC2)C(=O)c2ccccc2S3)cc(OC)c1OC` the Potency was inconclusive: 89.1 µM [inhibitor, partial curve, poor fit].
In the case of `CCOC(=O)c1ccccc1NC(=O)CN1CCCN(Cc2cccc(Cl)c2)S1(=O)=O`, the Potency is reported as inconclusive: 89.1 µM [inhibitor, single point].
`COc1ccc(S(=O)(=O)Nc2cc3c(C(=O)OC(C)C)c(C)oc3c3ccccc23)cc1` was tested, and the Potency was inconclusive: 89.1 µM [inhibitor, single point].
For `COc1ccc(N2C(=O)Cc3cc(OC)c(OC)cc3C2c2ccc(F)cc2)cc1` (stereo not drawn), the Potency was inconclusive: 100 µM [inhibitor, single point].
For `COc1ccc(C(=O)c2sc3nc(-c4ccc(F)cc4)ccc3c2N)cc1`, the “activity change, negative = inhibition” value was inactive: -5.3%.
In the case of `COc1ccc(-c2nn3c(=O)cc(CN4CCN(S(=O)(=O)c5ccc(C)cc5)CC4)nc3s2)cc1`, the Potency is reported as inconclusive: 100 µM [inhibitor, partial curve, poor fit].
In the case of `CC(=O)c1ccc(NC(=O)c2nc(-c3ccccc3)n(-c3ccccc3)n2)cc1`, the Potency is reported as inconclusive: 89.1 µM [inhibitor, single point].
For `COc1cccc(N2CCN(C(=O)CCCCCn3c(=O)[nH]c4ccccc4c3=O)CC2)c1`, the Potency was inconclusive: 89.1 µM [inhibitor, single point].
With `Cc1ccc(S(=O)(=O)N(C)Cc2nc(-c3ccccc3)oc2C)cc1` the Potency was inconclusive: 79.4 µM [inhibitor, single point].
For `CCOc1ccc(N(CC)C(=O)c2nn(-c3ccc(OC)cc3)c(=O)c3c2c2ccccc2n3C)cc1`, the Potency was inconclusive: 63.1 µM [inhibitor, partial curve, poor fit].
For `Cc1ccc(CNC(=O)CCCCCn2c(=O)c3sccc3n(CC(=O)Nc3c(C)cc(C)cc3C)c2=O)cc1`, the Potency was inconclusive: 89.1 µM [inhibitor, partial curve, poor fit].
`CCc1ccccc1NC(=O)Cc1ccc(NC(=O)N2CCCCc3ccccc32)cc1` was tested, and the Potency was inconclusive: 89.1 µM [inhibitor, single point].
For `Cc1cccc(Cn2c(COc3ccc(Cl)cc3)nc3ccccc32)c1`, the Potency was inconclusive: 89.1 µM [inhibitor, partial curve, poor fit].
For `CC(=O)Nc1ccc(NC(=O)C2(c3cccs3)CCOCC2)cc1`, the Potency was inconclusive: 89.1 µM [inhibitor, single point].
For `Cc1ccc(Cn2c(C(C)NC(=O)c3ccccc3)nc3ccccc32)cc1` (stereo not drawn), the Potency was inconclusive: 22.4 µM [inhibitor, partial curve, poor fit].
In the case of `CC1Cc2ccccc2N1S(=O)(=O)c1nnc(NC(=O)c2ccccc2)s1` (stereo not drawn), the “activity change, negative = inhibition” value is reported as inactive: 4.21%.
With `COc1ccc(Cn2c(=O)c3cccnc3n(Cc3cccc(F)c3)c2=O)cc1` the Potency was inconclusive: 89.1 µM [inhibitor, partial curve, poor fit].
In the case of `O=C(CSc1ncc(S(=O)(=O)c2ccc(Cl)cc2)c(=O)[nH]1)Nc1cccc(C(F)(F)F)c1`, the Potency is reported as inconclusive: 79.4 µM [inhibitor, single point].
`COc1ccc(Cn2c(C(=O)O)c(CNCCc3cc(OC)ccc3OC)c3ccc(C)cc32)cc1` was tested, and the Potency was inconclusive: 28.2 µM [inhibitor, partial curve, poor fit].
`Cc1ccc(C)c(-n2c(N)c(C#N)c3nc4ccccc4nc32)c1` was tested, and the Potency was inconclusive: 100 µM [inhibitor, partial curve, poor fit].
With `CC(C)(C)C(=O)Nc1ccc(-c2csc(N)n2)cc1` the “activity change, negative = inhibition” value was inactive: -10.9%.
`COc1ccc(Nc2c3c(nc4ccc(NC(=O)c5ccc(F)cc5)cc24)CCCC3)cc1OC` was tested, and the Potency was inconclusive: 89.1 µM [inhibitor, single point].
In the case of `COc1cc(C(=O)Oc2c(Sc3ccc(C)cc3)c(C)nn2-c2ccccc2)cc(OC)c1OC`, the Potency is reported as inconclusive: 89.1 µM [inhibitor, partial curve, poor fit].
